± gives the standard deviation. The list shows a part of the results, in another mix than the full data.
Tested on: MIWI (PIWIL1) piRISC loaded with piRNA #1 (30 nt)
Assay: pre-steady-state target cleavage rate (min^-1); MIWI and MILI are mouse PIWI proteins and EfPiwi is from a freshwater sponge; tags in brackets are library labels; higher = faster piRNA-guided slicing of the target
Conditions: guide: piRNA #1 5'p-UGAGGUAGUAGGUUGUAUAGUAUCCAGAGG; auxiliary factor: 500 nM mouse GTSF1
Method in brief: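 Cleave-'n-Seq reactions paired 0.1 nM transcribed, DNA-blocked target RNA library with 1 nM active affinity-purified piRISC holding one synthetic guide, plus or minus 500 nM GTSF1 partner protein, in HEPES–potassium acetate buffer at 33 °C for 0–8 or 0–960 min. After sequencing of uncleaved targets and normalisation to depth and weakly complementary targets, the pre-steady-state cleavage rate was taken from a burst-and-steady-state fit. Three trials were pooled, and k3 was capped at 0.0001 min^-1.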

Sequence | pre-steady-state target cleavage rate
GGAGACGAUACUAUACACCUACUACCUCA | 0.288 ± 0.027
GGUCUGGAUACUCAUACAACCUACUACCUCA | 1.42 ± 0.089
GGAGAGGAUCACUAUACAACCUACUACCUCA | 1.08 ± 0.099
GGAGACCUUACAAUACAACCAACUACCUCA | 0.00516 ± 0.0025
GGAGACCAUACUAUACAACCUACUACCGCA | 1.56 ± 0.13
GGUCUGGAUACUAUACUUCCUACUACCUCA | 0.248 ± 0.029
GGAGACCAUACUAUACAACCUACUUGCUCA | 0.465 ± 0.048
CCUCUGGAUAGUAUACAACCUAGUACCUCA | 0.312 ± 0.064
GGAGACCUAUGUAUACAACCUACUACCUGA | 0.0678 ± 0.013
GGUCUGGAAACUAUACAACCUACUAGCUCA | 0.0186 ± 0.0084
GGAGACGAUACUAUACAACCAUGUACCUCA | 0.00871 ± 0.0024
GGAGAGGAUACUAUACAUCCAACUACCUCA | 0.0804 ± 0.011
GGACUGCAUACUAUACAACCAACUACCUCA | 0.088 ± 0.0079
GGUGUGGAUACUAUACAACCUACUACGUCA | 0.535 ± 0.063
GGACUGGAUACUACACAACCUACUACCUCA | 1.77 ± 0.11
GGAGACCAUACUAUACAACGUACUACGUCA | 0.474 ± 0.06

Source: the supplement of paper PMC10338343
